{
  "sequences": {"note": "By UniProt entry, the sequences of proteins in these tests, tags left out.", "UniProt Q96EP0": "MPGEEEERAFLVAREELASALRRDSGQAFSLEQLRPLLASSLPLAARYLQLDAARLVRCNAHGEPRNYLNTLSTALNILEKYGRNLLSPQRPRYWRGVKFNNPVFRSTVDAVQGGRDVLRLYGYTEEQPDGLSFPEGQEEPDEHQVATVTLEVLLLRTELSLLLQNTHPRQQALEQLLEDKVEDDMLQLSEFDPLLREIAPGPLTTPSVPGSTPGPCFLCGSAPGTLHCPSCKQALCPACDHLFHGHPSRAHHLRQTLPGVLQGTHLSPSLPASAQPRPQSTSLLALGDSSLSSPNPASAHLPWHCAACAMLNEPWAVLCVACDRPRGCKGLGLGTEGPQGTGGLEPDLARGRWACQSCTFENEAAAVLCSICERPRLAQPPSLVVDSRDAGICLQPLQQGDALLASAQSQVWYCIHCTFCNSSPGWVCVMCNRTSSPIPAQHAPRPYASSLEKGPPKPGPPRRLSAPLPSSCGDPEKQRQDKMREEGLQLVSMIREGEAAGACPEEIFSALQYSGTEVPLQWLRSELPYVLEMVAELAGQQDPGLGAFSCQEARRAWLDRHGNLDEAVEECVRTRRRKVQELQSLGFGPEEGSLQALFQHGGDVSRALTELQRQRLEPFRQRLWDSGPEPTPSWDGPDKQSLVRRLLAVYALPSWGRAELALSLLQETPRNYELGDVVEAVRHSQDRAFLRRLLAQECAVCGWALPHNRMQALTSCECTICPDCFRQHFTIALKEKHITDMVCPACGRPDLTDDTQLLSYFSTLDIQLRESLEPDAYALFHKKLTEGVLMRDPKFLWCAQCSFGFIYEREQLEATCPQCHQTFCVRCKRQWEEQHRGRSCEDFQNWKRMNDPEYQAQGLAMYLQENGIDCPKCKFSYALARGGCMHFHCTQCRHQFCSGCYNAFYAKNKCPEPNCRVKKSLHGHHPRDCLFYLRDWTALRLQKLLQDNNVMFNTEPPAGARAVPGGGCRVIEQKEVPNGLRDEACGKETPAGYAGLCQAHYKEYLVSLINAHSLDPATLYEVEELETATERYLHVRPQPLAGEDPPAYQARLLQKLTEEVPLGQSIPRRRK", "UniProt Q96BN8": "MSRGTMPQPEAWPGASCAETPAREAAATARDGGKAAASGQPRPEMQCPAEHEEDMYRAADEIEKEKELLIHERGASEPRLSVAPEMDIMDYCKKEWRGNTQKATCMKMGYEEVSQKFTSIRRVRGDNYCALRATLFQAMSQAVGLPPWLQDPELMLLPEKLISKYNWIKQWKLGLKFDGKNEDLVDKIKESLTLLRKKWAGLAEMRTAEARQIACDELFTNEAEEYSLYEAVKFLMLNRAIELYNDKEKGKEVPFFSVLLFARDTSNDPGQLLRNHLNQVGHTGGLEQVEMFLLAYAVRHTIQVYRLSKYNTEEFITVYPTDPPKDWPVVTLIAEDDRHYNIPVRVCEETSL"},
  "source": "paper PMC5031558",
  "assay_in_all_cases": "co-IP; immunoprecipitation of transiently expressed Myc-SPATA2 variants from SPATA2 KO U2OS/NOD2 cells, western blot",
  "key": {"[1]": {"target": "T1, Myc-SPATA2 R212X (aa 1–211) (UniProt Q9UM82)", "T1 sequence": "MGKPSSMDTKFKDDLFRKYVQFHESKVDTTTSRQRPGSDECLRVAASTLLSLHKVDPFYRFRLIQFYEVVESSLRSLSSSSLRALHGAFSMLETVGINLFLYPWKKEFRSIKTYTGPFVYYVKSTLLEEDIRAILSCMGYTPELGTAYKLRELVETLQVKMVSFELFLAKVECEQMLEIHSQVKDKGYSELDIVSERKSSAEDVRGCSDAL"}, "[2]": {"target": "T2, Myc-SPATA2 V357X (aa 1–356) (UniProt Q9UM82)", "T2 sequence": "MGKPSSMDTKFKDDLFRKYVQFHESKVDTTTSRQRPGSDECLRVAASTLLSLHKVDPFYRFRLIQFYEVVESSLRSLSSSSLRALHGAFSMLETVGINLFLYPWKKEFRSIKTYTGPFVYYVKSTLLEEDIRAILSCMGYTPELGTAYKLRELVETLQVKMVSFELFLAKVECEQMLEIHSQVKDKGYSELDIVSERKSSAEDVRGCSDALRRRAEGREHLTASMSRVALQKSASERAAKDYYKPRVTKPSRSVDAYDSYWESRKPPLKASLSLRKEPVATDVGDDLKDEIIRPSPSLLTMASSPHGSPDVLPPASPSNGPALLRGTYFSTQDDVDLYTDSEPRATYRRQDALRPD"}, "Myc-SPATA2 wild type": {"target": "T3, Myc-SPATA2 wild type (UniProt Q9UM82)", "T3 sequence": "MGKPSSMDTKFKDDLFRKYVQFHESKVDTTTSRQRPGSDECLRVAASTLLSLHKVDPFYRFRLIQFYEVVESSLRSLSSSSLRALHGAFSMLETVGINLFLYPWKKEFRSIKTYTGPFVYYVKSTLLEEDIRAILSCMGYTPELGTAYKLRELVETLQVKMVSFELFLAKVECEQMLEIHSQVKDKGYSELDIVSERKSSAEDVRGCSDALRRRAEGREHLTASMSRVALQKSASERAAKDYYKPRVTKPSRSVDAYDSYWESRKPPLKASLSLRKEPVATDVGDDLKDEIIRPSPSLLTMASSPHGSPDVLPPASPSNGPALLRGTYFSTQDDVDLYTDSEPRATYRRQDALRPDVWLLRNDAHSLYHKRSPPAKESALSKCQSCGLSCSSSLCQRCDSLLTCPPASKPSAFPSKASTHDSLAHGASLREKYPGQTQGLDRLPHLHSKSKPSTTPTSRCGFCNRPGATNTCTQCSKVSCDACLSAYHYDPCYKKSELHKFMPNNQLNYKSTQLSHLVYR"}},
  "note": "No constants are given. Whether binding was seen depends on the method and setting. Binding seen in cells or lysates may run through a third protein. Some entries that bind do so weakly or less than the wild type. Sequences can lack the tags named with a protein.",
  "data": [
    {"substance": "HOIP (endogenous) (from UniProt Q96EP0 1-1072)", "values": [
      {"measurement": "binding", "setting": "[1]", "value": "no binding"},
      {"measurement": "binding", "setting": "[2]", "value": "binds"},
      {"measurement": "binding", "setting": "Myc-SPATA2 wild type", "value": "binds"}
    ]},
    {"substance": "OTULIN (endogenous) (from UniProt Q96BN8 1-352)", "values": [
      {"measurement": "binding", "setting": "Myc-SPATA2 wild type", "value": "no binding"}
    ]}
  ]
}
